The test system of this assay is L1210 leukemia ip in BDF1 mice, survival T/C. Description: NCI In Vivo Anticancer Drug Screen. Data for tumor model L1210 Leukemia (intraperitoneal) in B6D2F1 (BDF1) mice. To be noted: endpoint: mean survival time, higher = longer survival.

Results on 2 molecules are retold here after PubChem BioAssay AID248 (DTP/NCI, 2004).

Toxic doses and inconclusive results are not listed. For part of its entries the source gives two or more results. This list holds those alone. There may be further records. The values listed for one entry differ for a reason that is not stated; dose, time, organism, isomer or construct need not be as stated for each record.

Consider `CC1(C)CN1P(=O)(N1CC1(C)C)N1CC1(C)C` (centres undefined), for which the T/C (dose: 33.0 mg/kg/injection, schedule: Q01DX001 (ip), vehicle: saline) was 121 % of control and 151 % of control; the T/C (dose: 50.0 mg/kg/injection, schedule: Q01DX001 (ip), vehicle: saline) was 123 % of control and 150 % of control; the T/C (dose: 75.0 mg/kg/injection, schedule: Q01DX001 (ip), vehicle: saline) is 119 % of control and 170 % of control.

`COc1cc(C=Nc2ccc(-c3csc(-c4ccccc4)n3)c(Cl)c2)ccc1N(CCCl)CCCl`: the T/C (dose: 30.0 mg/kg/injection, schedule: Q01DX009 (ip), vehicle: carboxymethylcellulose (CMC)) was 123 % of control and 156 % of control.
